# Test results from the supplement of paper PMC8728848.
# The list shows a part of the results.
# Legend:
# Assay in all cases: glycan array binding signal (z-score within array); higher = stronger binding
# Details in all cases: glycan notation: IUPAC condensed, linker removed
# Fuc(a1-2)Gal = target: Fuc(a1-2)Gal
# How it was run: (§1)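 Columns mapping to the same glycan were averaged after glycan names were converted to IUPAC-condensed notation. The data come from 3228 arrays in the Consortium for Functional Glycomics database, limited to those with an available protein sequence. Binding is reported as a within-array Z-score averaged across arrays of one protein sequence and across linkers.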
# Fuc(a1-2)Gal(b1-3)GalNAc = target: Fuc(a1-2)Gal(b1-3)GalNAc
# How it was run: as §1
# [1] = target: Fuc(a1-2)Gal(b1-3)GalNAc(a1-3)[Fuc(a1-2)]Gal(b1-4)Glc
# How it was run: as §1
# [2] = target: Fuc(a1-2)Gal(b1-3)GalNAc(a1-3)[Fuc(a1-2)]Gal(b1-4)GlcNAc
# How it was run: as §1
# [3] = target: Fuc(a1-2)Gal(b1-3)GalNAc(b1-3)Gal
# How it was run: as §1
# [4] = target: Fuc(a1-2)Gal(b1-3)GalNAc(b1-3)Gal(a1-4)Gal(b1-4)Glc
# How it was run: as §1
# [5] = target: Fuc(a1-2)Gal(b1-3)GalNAc(b1-4)[Neu5Ac(a2-3)]Gal(b1-4)Glc
# How it was run: as §1
# Fuc(a1-2)Gal(b1-3)GlcNAc = target: Fuc(a1-2)Gal(b1-3)GlcNAc
# How it was run: as §1
# [6] = target: Fuc(a1-2)Gal(b1-3)GlcNAc(b1-2)Man(a1-3)[Fuc(a1-2)Gal(b1-3)GlcNAc(b1-2)Man(a1-6)]Man(b1-4)GlcNAc(b1-4)GlcNAc
# How it was run: as §1
# [7] = target: Fuc(a1-2)Gal(b1-3)GlcNAc(b1-2)Man(a1-3)[Fuc(a1-2)Gal(b1-3)GlcNAc(b1-2)Man(a1-6)]Man(b1-4)GlcNAc(b1-4)[Fuc(a1-6)]GlcNAc
# How it was run: as §1
# [8] = target: Fuc(a1-2)Gal(b1-3)GlcNAc(b1-3)Gal(b1-4)Glc
# How it was run: as §1
# [9] = target: Fuc(a1-2)Gal(b1-3)GlcNAc(b1-3)GalNAc
# How it was run: as §1
# [10] = target: Fuc(a1-2)Gal(b1-3)GlcNAc(b1-3)[Fuc(a1-2)Gal(b1-3)GlcNAc(b1-6)]GalNAc
# How it was run: as §1
# [11] = target: Fuc(a1-2)Gal(b1-3)GlcNAc(b1-3)[Gal(b1-4)GlcNAc(b1-6)]Gal(b1-4)Glc
# How it was run: as §1
# [12] = target: Fuc(a1-2)Gal(b1-3)GlcNAc(b1-3)[Neu5Ac(a2-6)Gal(b1-4)GlcNAc(b1-6)]Gal(b1-4)Glc
# How it was run: as §1
# [13] = target: Fuc(a1-2)Gal(b1-3)GlcNAc6S
# How it was run: as §1
# [14] = target: Fuc(a1-2)Gal(b1-3)[Fuc(a1-4)]GlcNAc
# How it was run: as §1
# [15] = target: Fuc(a1-2)Gal(b1-3)[Fuc(a1-4)]GlcNAc(b1-2)Man(a1-3)[Fuc(a1-2)Gal(b1-3)[Fuc(a1-4)]GlcNAc(b1-2)Man(a1-3)]Man(b1-4)GlcNAc(b1-4)GlcNAc
# How it was run: as §1
# [16] = target: Fuc(a1-2)Gal(b1-3)[Fuc(a1-4)]GlcNAc(b1-2)Man(a1-3)[Fuc(a1-2)Gal(b1-3)[Fuc(a1-4)]GlcNAc(b1-2)Man(a1-6)]Man(b1-4)GlcNAc(b1-4)[Fuc(a1-6)]GlcNAc(b1-4)[Fuc(a1-6)]GlcNAc
# How it was run: as §1
# [17] = target: Fuc(a1-2)Gal(b1-3)[Fuc(a1-4)]GlcNAc(b1-3)[Fuc(a1-3)[Gal(b1-4)]GlcNAc(b1-6)]Gal(b1-4)Glc
# How it was run: as §1
# [18] = target: Fuc(a1-2)Gal(b1-3)[Fuc(a1-4)]GlcNAc(b1-3)[Gal(b1-4)GlcNAc(b1-6)]Gal(b1-4)Glc
# How it was run: as §1
# [19] = target: Fuc(a1-2)Gal(b1-4)Fuc(a1-3)]GlcNAc(b1-2)Man(a1-3)[Fuc(a1-2)Gal(b1-4)[Fuc(a1-3)]GlcNAc(b1-2)Man(a1-6)]Man(b1-4)GlcNAc(b1-4)GlcNAc
# How it was run: as §1
# Fuc(a1-2)Gal(b1-4)Glc = target: Fuc(a1-2)Gal(b1-4)Glc
# How it was run: as §1
# Fuc(a1-2)Gal(b1-4)Glc6S = target: Fuc(a1-2)Gal(b1-4)Glc6S
# How it was run: as §1
# Fuc(a1-2)Gal(b1-4)GlcNAc = target: Fuc(a1-2)Gal(b1-4)GlcNAc
# How it was run: as §1
# [20] = target: Fuc(a1-2)Gal(b1-4)GlcNAc(b1-2)Man
# How it was run: as §1
# [21] = target: Fuc(a1-2)Gal(b1-4)GlcNAc(b1-2)Man(a1-3)[Fuc(a1-2)Gal(b1-4)GlcNAc(b1-2)Man(a1-6)]Man(b1-4)GlcNAc(b1-4)GlcNAc
# How it was run: as §1
# [22] = target: Fuc(a1-2)Gal(b1-4)GlcNAc(b1-2)Man(a1-3)[Fuc(a1-2)Gal(b1-4)GlcNAc(b1-2)Man(a1-6)]Man(b1-4)GlcNAc(b1-4)[Fuc(a1-6)]GlcNAc
# How it was run: as §1
# [23] = target: Fuc(a1-2)Gal(b1-4)GlcNAc(b1-2)[Fuc(a1-2)Gal(b1-4)GlcNAc(b1-4)]Man(a1-3)[Fuc(a1-2)Gal(b1-4)GlcNAc(b1-2)Man(a1-6)]Man(b1-4)GlcNAc(b1-4)GlcNAc
# How it was run: as §1
# [24] = target: Fuc(a1-2)Gal(b1-4)GlcNAc(b1-3)Gal(b1-4)GlcNAc
# How it was run: as §1
binder,measurement,setting,value
"CFEM-CGl (Candida glabrata), Q6FRS0 (protein) VLATPPACLLACVAQVSKQSSQCHTLNQVGCFCENENTAIKNCLDSICPNGNSDAAYTAFKNSCGDVGKAVASV",glycan array binding signal (z-score),Fuc(a1-2)Gal,-0.215
same,glycan array binding signal (z-score),Fuc(a1-2)Gal(b1-3)GalNAc,-0.341
same,glycan array binding signal (z-score),[1],-0.334
same,glycan array binding signal (z-score),[2],-0.224
same,glycan array binding signal (z-score),[3],0.607
same,glycan array binding signal (z-score),[4],-0.136
same,glycan array binding signal (z-score),[5],0.519
same,glycan array binding signal (z-score),Fuc(a1-2)Gal(b1-3)GlcNAc,-0.431
same,glycan array binding signal (z-score),[6],-0.488
same,glycan array binding signal (z-score),[7],-0.163
same,glycan array binding signal (z-score),[8],-0.493
same,glycan array binding signal (z-score),[9],-0.548
same,glycan array binding signal (z-score),[10],0.578
same,glycan array binding signal (z-score),[11],-0.442
same,glycan array binding signal (z-score),[12],-0.042
same,glycan array binding signal (z-score),[13],-0.034
same,glycan array binding signal (z-score),[14],-0.551
same,glycan array binding signal (z-score),[15],1.1
same,glycan array binding signal (z-score),[16],-0.092
same,glycan array binding signal (z-score),[17],-0.381
same,glycan array binding signal (z-score),[18],-0.356
same,glycan array binding signal (z-score),[19],0.143
same,glycan array binding signal (z-score),Fuc(a1-2)Gal(b1-4)Glc,-0.13
same,glycan array binding signal (z-score),Fuc(a1-2)Gal(b1-4)Glc6S,-0.295
same,glycan array binding signal (z-score),Fuc(a1-2)Gal(b1-4)GlcNAc,-0.393
same,glycan array binding signal (z-score),[20],-0.231
same,glycan array binding signal (z-score),[21],-0.245
same,glycan array binding signal (z-score),[22],-0.513
same,glycan array binding signal (z-score),[23],-0.312
same,glycan array binding signal (z-score),[24],-0.233
